From publication PMC4336329 (PLoS ONE, 2015)
Screen size: about 310,000 compounds; about 2,200 (0.71%) showed an effect of 50% or more. Effects have a minus sign here. This is one part of the list.

The compounds below were run against human ether-à-go-go-related gene (hERG) potassium channel (human, UniProt Q12809) (assay: primary screen, population patch clamp on CHO cells stably expressing hERG).
Sequence of human ether-à-go-go-related gene (hERG) potassium channel (Q12809 whole entry, looked up): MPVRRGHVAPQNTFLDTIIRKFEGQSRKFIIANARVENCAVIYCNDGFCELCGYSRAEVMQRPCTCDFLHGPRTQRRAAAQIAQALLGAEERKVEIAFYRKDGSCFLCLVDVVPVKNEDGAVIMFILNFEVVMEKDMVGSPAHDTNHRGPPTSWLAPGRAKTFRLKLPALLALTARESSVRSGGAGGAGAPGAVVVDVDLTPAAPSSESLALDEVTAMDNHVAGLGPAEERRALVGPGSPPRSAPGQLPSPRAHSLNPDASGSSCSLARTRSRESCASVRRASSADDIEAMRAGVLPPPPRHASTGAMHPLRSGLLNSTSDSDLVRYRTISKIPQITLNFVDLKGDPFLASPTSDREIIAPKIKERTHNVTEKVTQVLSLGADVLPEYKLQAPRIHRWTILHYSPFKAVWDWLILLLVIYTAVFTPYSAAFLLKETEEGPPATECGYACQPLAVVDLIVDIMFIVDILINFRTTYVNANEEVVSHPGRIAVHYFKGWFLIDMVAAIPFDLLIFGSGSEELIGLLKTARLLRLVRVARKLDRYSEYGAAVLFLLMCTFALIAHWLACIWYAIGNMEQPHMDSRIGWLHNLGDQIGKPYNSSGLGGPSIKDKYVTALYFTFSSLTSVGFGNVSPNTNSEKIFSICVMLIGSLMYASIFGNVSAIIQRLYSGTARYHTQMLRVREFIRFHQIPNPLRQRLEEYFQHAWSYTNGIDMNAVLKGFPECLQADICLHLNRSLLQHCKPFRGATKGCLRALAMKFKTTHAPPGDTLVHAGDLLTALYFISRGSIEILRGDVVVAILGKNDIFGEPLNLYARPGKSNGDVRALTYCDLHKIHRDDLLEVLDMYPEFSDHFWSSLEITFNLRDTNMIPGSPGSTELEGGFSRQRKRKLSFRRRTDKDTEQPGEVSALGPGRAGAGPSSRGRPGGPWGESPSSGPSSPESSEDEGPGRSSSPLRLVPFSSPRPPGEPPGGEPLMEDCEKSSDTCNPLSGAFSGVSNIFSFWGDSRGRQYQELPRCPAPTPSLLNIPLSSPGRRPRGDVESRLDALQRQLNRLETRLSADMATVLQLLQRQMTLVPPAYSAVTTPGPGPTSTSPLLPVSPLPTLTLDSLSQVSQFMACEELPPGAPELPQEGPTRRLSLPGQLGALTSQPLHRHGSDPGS
With O=C(CN1C(=O)c2ccccc2C1=O)Nc1ccc(N2CCOCC2)cc1 the “hERG current change (%, negative = inhibition) at 1uM” value was 2.07%.
In the case of COc1ccc(-c2cc(C(=O)Nc3ccc4c(c3)OCO4)no2)cc1OC, the “hERG current change (%, negative = inhibition) at 1uM” value is reported as -7.17%.
For CCn1c(=O)n(-c2ccc(Cl)cc2)c(=O)c2c3c(sc21)COC(C)(C)C3, the “hERG current change (%, negative = inhibition) at 1uM” value was 11.2%.
For Cc1ccsc1C(=O)OCC(=O)Nc1cccc(F)c1, the “hERG current change (%, negative = inhibition) at 1uM” value was 9.41%.
O=C(Nc1cccc2ccccc12)/C(=C\c1cccc([N+](=O)[O-])c1)NC(=O)c1cccs1 was tested, and the “hERG current change (%, negative = inhibition) at 1uM” value was -67.7%.
In the case of CC(C)C(=O)N1CCN(c2ccccc2NC(=O)c2cccc(Cl)c2)CC1, the “hERG current change (%, negative = inhibition) at 1uM” value is reported as -24.6%.
O=C1NC(=O)/C(=C/c2cccc([N+](=O)[O-])c2)N1 was tested, and the “hERG current change (%, negative = inhibition) at 1uM” value was 10%.
With CCN1CCN(c2nc3c(c(=O)[nH]c(=O)n3C)n2Cc2ccccc2)CC1 the “hERG current change (%, negative = inhibition) at 1uM” value was 1.8%.
For O=C(CSc1nc2ccccc2c(=O)n1-c1ccc(SC(F)F)cc1)Nc1ccc(N2CCOCC2)cc1, the “hERG current change (%, negative = inhibition) at 1uM” value was 16.7%.
In the case of O=C(COC(=O)c1ccc(Br)cc1)Nc1cccnc1Cl, the “hERG current change (%, negative = inhibition) at 1uM” value is reported as 8.98%.
In the case of CC(=O)C[C@H]1c2cc(C(F)(F)F)ccc2S(=O)(=O)N1c1ccc(N(C)C)cc1, the “hERG current change (%, negative = inhibition) at 1uM” value is reported as 3.16%.
CC(=O)c1ccc(OCCCCOc2ccc(C(C)=O)cc2)cc1 was tested, and the “hERG current change (%, negative = inhibition) at 1uM” value was 14.8%.
With COc1ccc(N(CC(=O)N2CCN(c3ccc(F)cc3)CC2)S(=O)(=O)c2c(C)n[nH]c2C)cc1 the “hERG current change (%, negative = inhibition) at 1uM” value was -18.5%.
For Cl.O=C(/C=C/c1ccccc1)Nc1ccc(N2CCCCC2)cc1, the “hERG current change (%, negative = inhibition) at 1uM” value was 11.3%.
With CCN1CCN(c2c(C=O)c(Cl)nc3ccc(OC)cc23)CC1 the “hERG current change (%, negative = inhibition) at 1uM” value was -14.9%.
CC(C)(C)C(=O)NC(=S)Nc1sc2c(c1C(N)=O)CCC2 was tested, and the “hERG current change (%, negative = inhibition) at 1uM” value was 11%.
Nc1nnc(SCC(=O)Nc2ccc(F)c(Cl)c2)n1-c1ccccc1 was tested, and the “hERG current change (%, negative = inhibition) at 1uM” value was -46.3%.
In the case of COCc1cc(C)n(CC(=O)Nc2cccc(C)c2)c(=O)c1C#N, the “hERG current change (%, negative = inhibition) at 1uM” value is reported as 7.55%.
For COc1ccc(C(CNC(=O)c2oc3cc(Br)ccc3c2C)N2CCCCC2)cc1 (stereo not shown), the “hERG current change (%, negative = inhibition) at 1uM” value was 10.9%.
With O=c1ccc2c([nH]1)CCCCCCCCCC2 the “hERG current change (%, negative = inhibition) at 1uM” value was 15.6%.
For COc1ccc(CC(=O)Nc2cc(S(=O)(=O)N3CCOCC3)ccc2N2CCOCC2)cc1, the “hERG current change (%, negative = inhibition) at 1uM” value was 8.1%.
For O=C(COC(=O)c1ccc(O)cc1)Nc1ccc(N2CCCCC2)cc1, the “hERG current change (%, negative = inhibition) at 1uM” value was 6.91%.
CNC(=O)c1c(NC(=O)c2cccc(N3C(=O)CCC3=O)c2)sc2c1CCCC2 was tested, and the “hERG current change (%, negative = inhibition) at 1uM” value was 11.6%.
COc1cc2cc(Oc3ccc4ccc(=O)oc4c3)c(=O)oc2cc1OC1OC(COC(=O)CC(C)(O)CC(=O)O)C(O)C(O)C1O (stereo not shown) was tested, and the “hERG current change (%, negative = inhibition) at 1uM” value was 17%.
C#CCn1c(=NC(=O)c2ccc(S(=O)(=O)N3CCc4ccccc4C3)cc2)sc2cc(S(N)(=O)=O)ccc21 was tested, and the “hERG current change (%, negative = inhibition) at 1uM” value was 10.6%.
With COc1cccc(COC(=O)C2CCN(C(=O)c3ccccc3C)CC2)c1OC the “hERG current change (%, negative = inhibition) at 1uM” value was 12.2%.
In the case of O=C1NC(c2cc3ccccc3nc2Cl)Nc2ccccc21 (stereo not shown), the “hERG current change (%, negative = inhibition) at 1uM” value is reported as 2.51%.
In the case of CCOc1ccc(N(CC(=O)NC2CCCC2)C(=O)c2ccc(C)s2)cc1, the “hERG current change (%, negative = inhibition) at 1uM” value is reported as 8.88%.
In the case of C=CCC(NCc1ccco1)c1ccc(OC)c(OC)c1.Cl (stereo not shown), the “hERG current change (%, negative = inhibition) at 1uM” value is reported as 11%.
In the case of O=C(NCc1ccccc1)N(Cc1nc2ccccc2c(=O)[nH]1)C1CCCC1, the “hERG current change (%, negative = inhibition) at 1uM” value is reported as 7.46%.
With C#CC[N+](C)(C)CCCCCCCCC.[Br-] the “hERG current change (%, negative = inhibition) at 1uM” value was -10.2%.
In the case of CCCCOc1ccc(C(=O)OC2CC(C)N(C)CC2C)cc1 (stereo not shown), the “hERG current change (%, negative = inhibition) at 1uM” value is reported as 4.64%.
With O=[N+]([O-])c1nn(-c2ccc3c(c2)OCCO3)n(O)c1=NC1CCCC1 the “hERG current change (%, negative = inhibition) at 1uM” value was 18.3%.
For C/C(N)=C(/C#N)C(=O)CSc1nnc(COc2cc(C)ccc2C)o1, the “hERG current change (%, negative = inhibition) at 1uM” value was 16.1%.
For CCOC(=O)c1cc(-c2nnc(SCC(=O)Nc3ccc(F)cc3)o2)c(C)nc1C, the “hERG current change (%, negative = inhibition) at 1uM” value was 5.8%.
Cc1nn(C)cc1CN(C)C(=O)c1nn2c(c1Cl)NC(c1cccs1)CC2C(F)(F)F (stereo not shown) was tested, and the “hERG current change (%, negative = inhibition) at 1uM” value was -8.45%.
In the case of CCN(CC)S(=O)(=O)c1ccc2c(c1)c(=O)c(C(=O)NCc1ccc3c(c1)OCO3)cn2C, the “hERG current change (%, negative = inhibition) at 1uM” value is reported as 7.75%.
For CSc1cc(-c2ccc(Cl)cc2)n(Cc2ccccc2)c(=O)c1C#N, the “hERG current change (%, negative = inhibition) at 1uM” value was 9.83%.
With Cc1nnc(NC(=O)CSc2nnc(Cc3ccccc3)n2Cc2ccccc2)s1 the “hERG current change (%, negative = inhibition) at 1uM” value was 4.59%.
In the case of O=C(CCCCCn1c(=O)[nH]c2ccccc2c1=O)NCCCN1CCN(c2ccccc2F)CC1, the “hERG current change (%, negative = inhibition) at 1uM” value is reported as -84.6%.
CCC(C)[C@@H](C(=O)Nc1ccc(OC)c(OC)c1)N1Cc2ccccc2C1=O (stereo partly shown) was tested, and the “hERG current change (%, negative = inhibition) at 1uM” value was 1.73%.
For CC(C)NCC(=O)NC12CC3CC(CC(C3)C1)C2.Cl, the “hERG current change (%, negative = inhibition) at 1uM” value was 13.8%.
In the case of O=C(Oc1cccc(OC(=O)c2ccco2)c1)c1ccco1, the “hERG current change (%, negative = inhibition) at 1uM” value is reported as 17.6%.
